± gives the standard deviation of the averaged measurements. Laboratory Escherichia coli strains with one amino-acid change in an essential protein, pooled on minimal glucose agar with carbenicillin or gentamicin at twice the control MIC (plus kanamycin and chloramphenicol for the plasmids), 48 h. Fold change of barcode share against drug-free plates; higher = less susceptible. Active = above 20 in both replicates (the paper's putatively resistant). '<' = one read or none on drug, '>' = one read or none on a drug-free plate. Shares are relative, so most strains fall below 1 when a few take over. Listed are strains with at least 15 reads on both drug-free plates, and hits; most hits rest on fewer reference reads. Replicate rank correlation about 0.5. Edits are read from barcodes.
B1: asd M140A (protein)
chain: MKNVGFIGWRGMVGSVLMQRMVEERDFDAIRPVFFSTSQLGQAAPSFGGTTGTLQDAFDLEALKALDIIVTCQGGDYTNEIYPKLRESGWQGYWIDAASSLRMKDDAIIILDPVNQDVITDGLNNGIRTFVGGNCTVSLALMSLGGLFANDLVDWVSVATYQAASGGGARHMRELLTQMGHLYGHVADELATPSSAILDIERKVTTLTRSGELPVDNFGVPLAGSLIPWIDKQLDNGQSREEWKGQAETNKILNTSSVIPVDGLCVRVGALRCHSQAFTIKLKKDVSIPTVEELLAAHNPWAKVVPNDREITMRELTPAAVTGTLTTPVGRLRKLNMGPEFLSAFTVGDQLLWGAAEPLRRMLRQLA
B2: mukB I712A (protein)
chain: MIERGKFRSLTLINWNGFFARTFDLDELVTTLSGGNGAGKSTTMAAFVTALIPDLTLLHFRNTTEAGATSGSRDKGLHGKLKAGVCYSMLDTINSRHQRVVVGVRLQQVAGRDRKVDIKPFAIQGLPMSVQPTQLVTETLNERQARVLPLNELKDKLEAMEGVQFKQFNSITDYHSLMFDLGIIARRLRSASDRSKFYRLIEASLYGGISSAITRSLRDYLLPENSGVRKAFQDMEAALRENRMTLEAIRVTQSDRDLFKHLISEATNYVAADYMRHANERRVHLDKALEFRRELHTSRQQLAAEQYKHVDMARELAEHNGAEGDLEADYQAASDHLNLVQTALRQQEKIERYEADLDELQIRLEEQNEVVAEAIERQQENEARAEAAELEVDELKSQLADYQQALDVQQTRAIQYNQAIAALNRAKELCHLPDLTADCAAEWLETFQAKELEATEKMLSLEQKMSMAQTAHSQFEQAYQLVVAINGPLARNEAWDVARELLREGVDQRHLAEQVQPLRMRLSELEQRLREQQEAERLLADFCKRQGKNFDIDELEALHQELEARIASLSDSVSNAREERMALRQEQEQLQSRIQSLMQRAPVWLAAQNSLNQLSEQCGEEFTSSQDVTEYLQQLLEREREAIVERDEVGARKNAVDEEIERLSQPGGSEDQRLNALAERFGGVLLSEIYDDVSLEDAPYFSALYGPSRHAAVVPDLSQVTEHLEGLTDCPEDLYLIEGDPQSFDDSVFSVDELEKAVVVKIADRQWRYSRFPEVPLFGRAARESRIESLHAEREVLSERFATLSFDVQKTQRLHQAFSRFIGSHLAVAFESDPEAEIRQLNSRRVELERALSNHENDNQQQRIQFEQAKEGVTALNRILPRLNLLADDSLADRVDEIRERLDEAQEAARFVQQFGNQLAKLEPIVSVLQSDPEQFEQLKEDYAYSQQMQRDARQQAFALTEVVQRRAHFSYSDSAEMLSGNSDLNEKLRERLEQAEAERTRAREALRGHAAQLSQYNQVLASLKSSYDTKKELLNDLQRELQDIGVRADSGAEERARIRRDELHAQLSNNRSRRNQLEKALTFCEAEMDNLTRKLRKLERDYFEMREQVVTAKAGWCAVMRMVKDNGVERRLHRRELAYLSADDLRSMSDKALGALRLAVADNEHLRDVLRMSEDPKRPERKIQFFVAVYQHLRERIRQDIIRTDDPVEAIEQMEIELSRLTEELTSREQKLAISSRSVANIIRKTIQREQNRIRMLNQGLQNVSFGQVNSVRLNVNVRETHAMLLDVLSEQHEQHQDLFNSNRLTFSEALAKLYQRLNPQIDMGQRTPQTIGEELLDYRNYLEMEVEVNRGSDGWLRAESGALSTGEAIGTGMSILVMVVQSWEDESRRLRGKDISPCRLLFLDEAARLDARSIATLFELCERLQMQLIIAAPENISPEKGTTYKLVRKVFQNTEHVHVVGLRGFAPQLPETLPGTDEAPSQAS
B3: mukB I712W (protein)
chain: MIERGKFRSLTLINWNGFFARTFDLDELVTTLSGGNGAGKSTTMAAFVTALIPDLTLLHFRNTTEAGATSGSRDKGLHGKLKAGVCYSMLDTINSRHQRVVVGVRLQQVAGRDRKVDIKPFAIQGLPMSVQPTQLVTETLNERQARVLPLNELKDKLEAMEGVQFKQFNSITDYHSLMFDLGIIARRLRSASDRSKFYRLIEASLYGGISSAITRSLRDYLLPENSGVRKAFQDMEAALRENRMTLEAIRVTQSDRDLFKHLISEATNYVAADYMRHANERRVHLDKALEFRRELHTSRQQLAAEQYKHVDMARELAEHNGAEGDLEADYQAASDHLNLVQTALRQQEKIERYEADLDELQIRLEEQNEVVAEAIERQQENEARAEAAELEVDELKSQLADYQQALDVQQTRAIQYNQAIAALNRAKELCHLPDLTADCAAEWLETFQAKELEATEKMLSLEQKMSMAQTAHSQFEQAYQLVVAINGPLARNEAWDVARELLREGVDQRHLAEQVQPLRMRLSELEQRLREQQEAERLLADFCKRQGKNFDIDELEALHQELEARIASLSDSVSNAREERMALRQEQEQLQSRIQSLMQRAPVWLAAQNSLNQLSEQCGEEFTSSQDVTEYLQQLLEREREAIVERDEVGARKNAVDEEIERLSQPGGSEDQRLNALAERFGGVLLSEIYDDVSLEDAPYFSALYGPSRHAWVVPDLSQVTEHLEGLTDCPEDLYLIEGDPQSFDDSVFSVDELEKAVVVKIADRQWRYSRFPEVPLFGRAARESRIESLHAEREVLSERFATLSFDVQKTQRLHQAFSRFIGSHLAVAFESDPEAEIRQLNSRRVELERALSNHENDNQQQRIQFEQAKEGVTALNRILPRLNLLADDSLADRVDEIRERLDEAQEAARFVQQFGNQLAKLEPIVSVLQSDPEQFEQLKEDYAYSQQMQRDARQQAFALTEVVQRRAHFSYSDSAEMLSGNSDLNEKLRERLEQAEAERTRAREALRGHAAQLSQYNQVLASLKSSYDTKKELLNDLQRELQDIGVRADSGAEERARIRRDELHAQLSNNRSRRNQLEKALTFCEAEMDNLTRKLRKLERDYFEMREQVVTAKAGWCAVMRMVKDNGVERRLHRRELAYLSADDLRSMSDKALGALRLAVADNEHLRDVLRMSEDPKRPERKIQFFVAVYQHLRERIRQDIIRTDDPVEAIEQMEIELSRLTEELTSREQKLAISSRSVANIIRKTIQREQNRIRMLNQGLQNVSFGQVNSVRLNVNVRETHAMLLDVLSEQHEQHQDLFNSNRLTFSEALAKLYQRLNPQIDMGQRTPQTIGEELLDYRNYLEMEVEVNRGSDGWLRAESGALSTGEAIGTGMSILVMVVQSWEDESRRLRGKDISPCRLLFLDEAARLDARSIATLFELCERLQMQLIIAAPENISPEKGTTYKLVRKVFQNTEHVHVVGLRGFAPQLPETLPGTDEAPSQAS
B4: asd M140Q (protein)
chain: MKNVGFIGWRGMVGSVLMQRMVEERDFDAIRPVFFSTSQLGQAAPSFGGTTGTLQDAFDLEALKALDIIVTCQGGDYTNEIYPKLRESGWQGYWIDAASSLRMKDDAIIILDPVNQDVITDGLNNGIRTFVGGNCTVSLQLMSLGGLFANDLVDWVSVATYQAASGGGARHMRELLTQMGHLYGHVADELATPSSAILDIERKVTTLTRSGELPVDNFGVPLAGSLIPWIDKQLDNGQSREEWKGQAETNKILNTSSVIPVDGLCVRVGALRCHSQAFTIKLKKDVSIPTVEELLAAHNPWAKVVPNDREITMRELTPAAVTGTLTTPVGRLRKLNMGPEFLSAFTVGDQLLWGAAEPLRRMLRQLA
B5: mukB V758A (protein)
chain: MIERGKFRSLTLINWNGFFARTFDLDELVTTLSGGNGAGKSTTMAAFVTALIPDLTLLHFRNTTEAGATSGSRDKGLHGKLKAGVCYSMLDTINSRHQRVVVGVRLQQVAGRDRKVDIKPFAIQGLPMSVQPTQLVTETLNERQARVLPLNELKDKLEAMEGVQFKQFNSITDYHSLMFDLGIIARRLRSASDRSKFYRLIEASLYGGISSAITRSLRDYLLPENSGVRKAFQDMEAALRENRMTLEAIRVTQSDRDLFKHLISEATNYVAADYMRHANERRVHLDKALEFRRELHTSRQQLAAEQYKHVDMARELAEHNGAEGDLEADYQAASDHLNLVQTALRQQEKIERYEADLDELQIRLEEQNEVVAEAIERQQENEARAEAAELEVDELKSQLADYQQALDVQQTRAIQYNQAIAALNRAKELCHLPDLTADCAAEWLETFQAKELEATEKMLSLEQKMSMAQTAHSQFEQAYQLVVAINGPLARNEAWDVARELLREGVDQRHLAEQVQPLRMRLSELEQRLREQQEAERLLADFCKRQGKNFDIDELEALHQELEARIASLSDSVSNAREERMALRQEQEQLQSRIQSLMQRAPVWLAAQNSLNQLSEQCGEEFTSSQDVTEYLQQLLEREREAIVERDEVGARKNAVDEEIERLSQPGGSEDQRLNALAERFGGVLLSEIYDDVSLEDAPYFSALYGPSRHAIVVPDLSQVTEHLEGLTDCPEDLYLIEGDPQSFDDSVFSVDELEKAAVVKIADRQWRYSRFPEVPLFGRAARESRIESLHAEREVLSERFATLSFDVQKTQRLHQAFSRFIGSHLAVAFESDPEAEIRQLNSRRVELERALSNHENDNQQQRIQFEQAKEGVTALNRILPRLNLLADDSLADRVDEIRERLDEAQEAARFVQQFGNQLAKLEPIVSVLQSDPEQFEQLKEDYAYSQQMQRDARQQAFALTEVVQRRAHFSYSDSAEMLSGNSDLNEKLRERLEQAEAERTRAREALRGHAAQLSQYNQVLASLKSSYDTKKELLNDLQRELQDIGVRADSGAEERARIRRDELHAQLSNNRSRRNQLEKALTFCEAEMDNLTRKLRKLERDYFEMREQVVTAKAGWCAVMRMVKDNGVERRLHRRELAYLSADDLRSMSDKALGALRLAVADNEHLRDVLRMSEDPKRPERKIQFFVAVYQHLRERIRQDIIRTDDPVEAIEQMEIELSRLTEELTSREQKLAISSRSVANIIRKTIQREQNRIRMLNQGLQNVSFGQVNSVRLNVNVRETHAMLLDVLSEQHEQHQDLFNSNRLTFSEALAKLYQRLNPQIDMGQRTPQTIGEELLDYRNYLEMEVEVNRGSDGWLRAESGALSTGEAIGTGMSILVMVVQSWEDESRRLRGKDISPCRLLFLDEAARLDARSIATLFELCERLQMQLIIAAPENISPEKGTTYKLVRKVFQNTEHVHVVGLRGFAPQLPETLPGTDEAPSQAS
B6: mukB V758W (protein)
chain: MIERGKFRSLTLINWNGFFARTFDLDELVTTLSGGNGAGKSTTMAAFVTALIPDLTLLHFRNTTEAGATSGSRDKGLHGKLKAGVCYSMLDTINSRHQRVVVGVRLQQVAGRDRKVDIKPFAIQGLPMSVQPTQLVTETLNERQARVLPLNELKDKLEAMEGVQFKQFNSITDYHSLMFDLGIIARRLRSASDRSKFYRLIEASLYGGISSAITRSLRDYLLPENSGVRKAFQDMEAALRENRMTLEAIRVTQSDRDLFKHLISEATNYVAADYMRHANERRVHLDKALEFRRELHTSRQQLAAEQYKHVDMARELAEHNGAEGDLEADYQAASDHLNLVQTALRQQEKIERYEADLDELQIRLEEQNEVVAEAIERQQENEARAEAAELEVDELKSQLADYQQALDVQQTRAIQYNQAIAALNRAKELCHLPDLTADCAAEWLETFQAKELEATEKMLSLEQKMSMAQTAHSQFEQAYQLVVAINGPLARNEAWDVARELLREGVDQRHLAEQVQPLRMRLSELEQRLREQQEAERLLADFCKRQGKNFDIDELEALHQELEARIASLSDSVSNAREERMALRQEQEQLQSRIQSLMQRAPVWLAAQNSLNQLSEQCGEEFTSSQDVTEYLQQLLEREREAIVERDEVGARKNAVDEEIERLSQPGGSEDQRLNALAERFGGVLLSEIYDDVSLEDAPYFSALYGPSRHAIVVPDLSQVTEHLEGLTDCPEDLYLIEGDPQSFDDSVFSVDELEKAWVVKIADRQWRYSRFPEVPLFGRAARESRIESLHAEREVLSERFATLSFDVQKTQRLHQAFSRFIGSHLAVAFESDPEAEIRQLNSRRVELERALSNHENDNQQQRIQFEQAKEGVTALNRILPRLNLLADDSLADRVDEIRERLDEAQEAARFVQQFGNQLAKLEPIVSVLQSDPEQFEQLKEDYAYSQQMQRDARQQAFALTEVVQRRAHFSYSDSAEMLSGNSDLNEKLRERLEQAEAERTRAREALRGHAAQLSQYNQVLASLKSSYDTKKELLNDLQRELQDIGVRADSGAEERARIRRDELHAQLSNNRSRRNQLEKALTFCEAEMDNLTRKLRKLERDYFEMREQVVTAKAGWCAVMRMVKDNGVERRLHRRELAYLSADDLRSMSDKALGALRLAVADNEHLRDVLRMSEDPKRPERKIQFFVAVYQHLRERIRQDIIRTDDPVEAIEQMEIELSRLTEELTSREQKLAISSRSVANIIRKTIQREQNRIRMLNQGLQNVSFGQVNSVRLNVNVRETHAMLLDVLSEQHEQHQDLFNSNRLTFSEALAKLYQRLNPQIDMGQRTPQTIGEELLDYRNYLEMEVEVNRGSDGWLRAESGALSTGEAIGTGMSILVMVVQSWEDESRRLRGKDISPCRLLFLDEAARLDARSIATLFELCERLQMQLIIAAPENISPEKGTTYKLVRKVFQNTEHVHVVGLRGFAPQLPETLPGTDEAPSQAS

These proteins were tested against Escherichia coli (laboratory strain) (assay: barcode share on antibiotic plates over drug-free plates; higher = less susceptible). Conditions: antibiotic: carbenicillin; 2× MIC (3.1 µg/mL).
Description: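 A pool of E. coli strains, each edited to carry one amino-acid change in an essential protein, was grown for 48 h on minimal glucose agar with or without antibiotic; strain barcodes were sequenced; mean of two replicates.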

Protein	fold change of barcode share
B1	0.362 ± 0.012
B2	0.319 ± 0.057
B3	0.285 ± 0.077
B4	0.306 ± 0.03
B5	0.452 ± 0.3
B6	0.331 ± 0.064

Same assay, conditions: antibiotic: gentamicin; 2× MIC (MIC 0.45 µg/mL)

Protein	fold change of barcode share
B1	0.0113 ± 0.0096
B2	0.00635 ± 0.00043
B3	0.00693 ± 0.0054
B4	0.00673 ± 0.0035
B5	< 0.0144
B6	< 0.0146

Source: the supplement of paper PMC11876631
